# Measured values published in the supplement of paper PMC3334620.
# Whole data set: some 33,000 sequences, median “E-score (-0.5 to 0.5)” near -0.054, cut for the highest 2% near 0.39. This is one part of the list.
# Target: Ylr278c (UniProt Q05854)
# Assay: PBM E-score (8-mer binding enrichment) (E-score (-0.5 to 0.5)); higher = stronger / more preferred TF binding; most listed sequences are background and not binding sites
# Details: protein concentration: 200 nM; construct: GST-DNA-binding domain
# Outline: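 Universal all-10-mer Agilent arrays, fresh or stripped once, were converted to double-stranded form by primer extension. GST-tagged yeast transcription factors from PURExpress in vitro transcription/translation, full-length or DNA-binding domain only, were applied at about 100-200 nM and detected with fluorescent anti-GST. After masliner normalisation, the Universal PBM Analysis Suite scored each ungapped eight-base word together with its reverse complement by E-score.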
row,Sequence,PBM E-score
1,GTTTTTTA,-0.0343
2,CCGGTAGG,0.219
3,GCTTCTCA,-0.0943
4,CACTCGGC,0.246
5,AGTCTTTC,-0.019
6,AACTACTC,0.13
7,CCTCGGGA,0.119
8,AACTTTAC,0.0269
9,ATGCACCA,-0.203
10,AAGCGAAT,0.0335
11,GGATACCC,0.084
12,CGCGTCCA,0.0142
13,CGCCTTTC,0.0647
14,ATAAATGA,-0.144
15,TAATTGAA,-0.0653
16,AGACGAAA,0.112
17,CCAGCGCC,-0.0308
18,AATCCCAT,-0.149
19,CGAGATCG,0.0617
20,GATCCCGC,0.232
21,CCGAGTCC,0.314
22,AAGATGCA,-0.0953
23,ACGGTACC,0.122
24,ATGTACAA,0.026
25,ACAATATA,0.109

row,Sequence,PBM E-score
1,CTATGCAA,-0.242
2,CTCCAGTA,-0.00465
3,CGCTCCTC,-0.0652
4,TAACCAGA,-0.187
5,ACTGCCAT,-0.153
6,CGTTCCGA,0.288
7,ACCCTACG,-0.0504
8,AGTCATAC,-0.114
9,ACCGGGAT,0.388
10,GCACATCC,0.0515
11,GTCGCAAA,0.0145
12,ATCCTCTC,-0.106
13,GGGAGGCA,-0.0852
14,ACAAAGAT,-0.217
15,AGGCTGTA,-0.146
16,CGTACCCC,0.11
17,ACATTATC,0.13
18,AATTCCTA,-0.0875
19,CTAGGCAG,-0.0962
20,CCACAACA,-0.225
21,ACACCGGT,0.324
22,ACATGGAA,-0.0054
23,GAGTCACA,-0.121
24,CGACCAGC,0.034
25,TCCTACGA,-0.178

row,Sequence,PBM E-score
1,TTCCCGAA,0.294
2,AAGCTCTC,-0.0008
3,AGTGGGGA,0.0123
4,ATATTTTG,0.0483
5,ACTGTGTA,-0.0865
6,AGTTACTC,-0.0438
7,ACGCTATA,-0.255
8,ATATATAA,0.011
9,AAATTGAC,0.034
10,CCTTTTAG,-0.317
11,CCCGTATA,0.145
12,ATGTCTCA,-0.171
13,ATGCGAGC,-0.0746
14,ACTCTGCT,-0.102
15,CCACACTC,0.0435
16,GCACGTAC,-0.141
17,ACACTTTC,0.104
18,ATACAAAA,-0.0304
19,GCTGTGTA,-0.165
20,CTCTAAGC,0.0461
21,ACAAAGAC,-0.0867
22,CATAGGGA,-0.262
23,CCCCCTCA,-0.336
24,CCGAATAG,0.245
25,CATCAGTC,0.00449

row,Sequence,PBM E-score
1,ACCTAGGC,-0.109
2,ACCCCAAC,-0.026
3,ACGCAGTG,-0.119
4,ACGTGGAT,-0.233
5,GAACAAAA,-0.02
6,TCTTTGAA,-0.132
7,CACTATCA,-0.165
8,ATTTCTAG,0.144
9,ACCCAGGA,-0.189
10,CCCACATA,-0.0575
11,CAGTTCAA,-0.0886
12,AACCAAAA,0.0239
13,CGCTCCGC,0.317
14,CCAGCACA,-0.152
15,TAGGCTAA,-0.152
16,GTAGTGAA,-0.0691
17,CACGCGAA,-0.142
18,CACAAGTG,-0.271
19,AATCTGCA,-0.262
20,ATCCTTTA,-0.00727
21,ATTTATGA,-0.0656
22,ATGATCGG,0.257
23,ACGGTTAA,-0.0441
24,GTGTATGA,-0.102
25,AGAGGTAT,-0.0593

row,Sequence,PBM E-score
1,AAATTATC,0.0288
2,CGTTTGAC,-0.0124
3,GACGTAAC,-0.0409
4,GTGTAGGA,0.0478
5,AGATTGAC,-0.123
6,ACAGGCGC,-0.0621
7,AGCAGAAG,-0.00493
8,GAAGGATA,0.0194
9,GAGCGCAA,-0.129
10,TCGTATCA,-0.111
11,GCGGGTTA,0.213
12,CGAGTCAC,-0.0588
13,CCGCGAGA,0.145
14,AGTCTTAA,-0.273
15,CCATAACA,-0.11
16,ATTTCTAA,0.00098
17,CCCAGAAC,-0.136
18,AGCGCGAC,0.0449
19,ATTGGGTC,0.109
20,ACCGCTCG,-0.00096
21,CTAGCTAA,-0.128
22,GTTGAGTA,-0.0603
23,AATCCTAC,-0.0493
24,CATCAAGC,-0.0328
25,AGTCCAGC,-0.0737

row,Sequence,PBM E-score
1,ATTCGGCA,0.226
2,CGATTCCA,0.056
3,AACATTCC,0.239
4,AACCTTTG,-0.0514
5,GGCCGCCC,0.0938
6,GGTTAACC,0.0591
7,AAGCGTCA,-0.245
8,ATGAAACC,-0.0249
9,CGAGGTTC,0.0751
10,AGGTTACC,0.138
11,CGGAGTTC,0.494
12,AATTGTGA,-0.247
13,AGTCCCAA,-0.0186
14,TGTGAGAA,0.0311
15,TCCACCCA,-0.258
16,GAGAGTCA,-0.153
17,ACGGGATC,0.109
18,TAAGTCTA,-0.137
19,GCACTGAA,-0.106
20,ATCAGCTC,-0.0203
21,ATGTAGTA,0.0501
22,CGGCCCCC,0.173
23,TGTTGAAA,-0.0138
24,CTTTAGGA,-0.223
25,CTAACCCA,-0.13

row,Sequence,PBM E-score
1,GGGATTTA,0.287
2,AAGCTGTG,-0.176
3,ATGAGCTA,-0.15
4,ACCATCAT,-0.16
5,GTTAAATA,0.0524
6,CAGCACGA,-0.171
7,GAACGGCA,0.17
8,GCCGCTAC,0.259
9,AGTATGTG,-0.0453
10,CACGTAAC,-0.0939
11,ACCTTACT,-0.0387
12,TAAGGCGA,-0.0928
13,GATGGATA,-0.0056
14,AATGCGAA,0.0719
15,GTACGTAA,-0.263
16,AACAGAGT,-0.114
17,CCCAAGAA,-0.0842
18,ATAACTCG,0.0232
19,GTTATAAC,-0.0431
20,GCCATAAA,-0.0598
21,AATCCAAT,-0.0416
22,GGTAAACC,0.167
